The other results are listed elsewhere or left out.
What was measured:
Test in all cases: glycan array binding signal (z-score within array); higher = stronger binding
Conditions in all cases: glycan notation: IUPAC condensed, linker removed
[1] = biological target: Man(a1-2)Man(a1-3)[Man(a1-2)Man(a1-6)]Man
Summary of the method: (§1)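 Glycan array data were curated from 3228 arrays in the Consortium for Functional Glycomics database and kept only where the protein sequence was available. Glycan names were converted to IUPAC-condensed notation, and columns mapping to the same glycan were averaged. The binding signal is a within-array Z-score, averaged across arrays of the same protein sequence at different concentrations or buffers and across linkers. Negative Z-scores can be read as non-binding.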

[2] = biological target: Man(a1-2)Man(a1-3)[Man(a1-2)Man(a1-6)]Man(a1-6)[Man(a1-2)Man(a1-2)Man(a1-3)]Man
Summary of the method: as §1

[3] = biological target: Man(a1-2)Man(a1-3)[Man(a1-2)Man(a1-6)]Man(a1-6)[Man(a1-2)Man(a1-2)Man(a1-3)]Man(b1-4)GlcNAc(b1-4)GlcNAc
Summary of the method: as §1

[4] = biological target: Man(a1-2)Man(a1-3)[Man(a1-6)]Man(a1-6)[Man(a1-2)Man(a1-3)]Man(b1-4)GlcNAc(b1-4)GlcNAc
Summary of the method: as §1

[5] = biological target: Man(a1-2)Man(a1-6)[Man(a1-3)]Man(a1-6)[Man(a1-2)Man(a1-2)Man(a1-3)]Man
Summary of the method: as §1

[6] = biological target: Man(a1-2)Man(a1-6)[Man(a1-3)]Man(a1-6)[Man(a1-2)Man(a1-2)Man(a1-3)]Man(b1-4)GlcNAc(b1-4)GlcNAc
Summary of the method: as §1

[7] = biological target: Man(a1-3)[Man(a1-6)]Man
Summary of the method: as §1

[8] = biological target: Man(a1-3)[Man(a1-6)]Man(a1-6)[Man(a1-2)Man(a1-3)]Man(b1-4)GlcNAc(b1-4)GlcNAc
Summary of the method: as §1

[9] = biological target: Man(a1-3)[Man(a1-6)]Man(a1-6)[Man(a1-3)]Man
Summary of the method: as §1

[10] = biological target: Man(a1-3)[Man(a1-6)]Man(a1-6)[Man(a1-3)]Man(b1-4)GlcNAc(b1-4)GlcNAc
Summary of the method: as §1

[11] = biological target: Man(a1-3)[Man(a1-6)]Man(b1-4)GlcNAc(b1-4)GlcNAc
Summary of the method: as §1

[12] = biological target: Man(a1-3)[Man(a1-6)]Man(b1-4)GlcNAc(b1-4)[Fuc(a1-6)]GlcNAc
Summary of the method: as §1

[13] = biological target: Man(a1-6)Man
Summary of the method: as §1

[14] = biological target: Man(b1-4)GlcNAc
Summary of the method: as §1

[15] = biological target: MurNAc(b1-4)GlcNAc
Summary of the method: as §1

[16] = biological target: Neu5Ac(a2-3)Gal
Summary of the method: as §1

[17] = biological target: Neu5Ac(a2-3)Gal(b1-3)GalNAc
Summary of the method: as §1

[18] = biological target: Neu5Ac(a2-3)Gal(b1-3)GalNAc(b1-3)Gal(a1-4)Gal(b1-4)Glc
Summary of the method: as §1

[19] = biological target: Neu5Ac(a2-3)Gal(b1-3)GalNAc(b1-4)[Neu5Ac(a2-3)]Gal(b1-4)Glc
Summary of the method: as §1

[20] = biological target: Neu5Ac(a2-3)Gal(b1-3)GalNAc(b1-4)[Neu5Ac(a2-8)Neu5Ac(a2-3)]Gal(b1-4)Glc
Summary of the method: as §1

[21] = biological target: Neu5Ac(a2-3)Gal(b1-3)GalNAc6S
Summary of the method: as §1

[22] = biological target: Neu5Ac(a2-3)Gal(b1-3)GlcNAc
Summary of the method: as §1

[23] = biological target: Neu5Ac(a2-3)Gal(b1-3)GlcNAc(b1-2)Man
Summary of the method: as §1

[24] = biological target: Neu5Ac(a2-3)Gal(b1-3)GlcNAc(b1-2)Man(a1-3)[GlcNAc(b1-4)][Neu5Ac(a2-3)Gal(b1-3)GlcNAc(b1-2)Man(a1-6)]Man(b1-4)GlcNAc(b1-4)GlcNAc
Summary of the method: as §1

[25] = biological target: Neu5Ac(a2-3)Gal(b1-3)GlcNAc(b1-2)Man(a1-3)[Neu5Ac(a2-3)Gal(b1-3)GlcNAc(b1-2)Man(a1-6)]Man(b1-4)GlcNAc(b1-4)GlcNAc
Summary of the method: as §1

[26] = biological target: Neu5Ac(a2-3)Gal(b1-3)GlcNAc(b1-3)Gal(b1-3)GlcNAc
Summary of the method: as §1

[27] = biological target: Neu5Ac(a2-3)Gal(b1-3)GlcNAc(b1-3)Gal(b1-4)GlcNAc
Summary of the method: as §1

[28] = biological target: Neu5Ac(a2-3)Gal(b1-3)GlcNAc(b1-3)GalNAc
Summary of the method: as §1

[29] = biological target: Neu5Ac(a2-3)Gal(b1-3)GlcNAc(b1-4)Gal(b1-4)Glc
Summary of the method: as §1

[30] = biological target: Neu5Ac(a2-3)Gal(b1-3)GlcNAc(b1-6)GalNAc
Summary of the method: as §1

[31] = biological target: Neu5Ac(a2-3)Gal(b1-3)GlcNAc6S
Summary of the method: as §1

[32] = biological target: Neu5Ac(a2-3)Gal(b1-3)[Fuc(a1-4)]GlcNAc
Summary of the method: as §1

[33] = biological target: Neu5Ac(a2-3)Gal(b1-3)[Fuc(a1-4)]GlcNAc(b1-3)Gal(b1-3)[Fuc(a1-4)]GlcNAc
Summary of the method: as §1

[34] = biological target: Neu5Ac(a2-3)Gal(b1-3)[Fuc(a1-4)]GlcNAc(b1-3)Gal(b1-4)[Fuc(a1-3)]GlcNAc
Summary of the method: as §1

[35] = biological target: Neu5Ac(a2-3)Gal(b1-3)[GlcNAc(b1-6)]GalNAc
Summary of the method: as §1

[36] = biological target: Neu5Ac(a2-3)Gal(b1-3)[Neu5Ac(a2-6)]GalNAc
Summary of the method: as §1

[37] = biological target: Neu5Ac(a2-3)Gal(b1-3)[Neu5Ac(a2-6)]GlcNAc(b1-3)[Fuc(a1-3)[Gal(b1-4)]GlcNAc(b1-6)]Gal(b1-4)Glc
Summary of the method: as §1

[38] = biological target: Neu5Ac(a2-3)Gal(b1-3)]Neu5Ac(a2-3)Gal(b1-4)]GlcNAc
Summary of the method: as §1

[39] = biological target: Neu5Ac(a2-3)Gal(b1-4)Glc
Summary of the method: as §1

[40] = biological target: Neu5Ac(a2-3)Gal(b1-4)GlcNAc
Summary of the method: as §1

[41] = biological target: Neu5Ac(a2-3)Gal(b1-4)GlcNAc(b1-2)Man
Summary of the method: as §1

[42] = biological target: Neu5Ac(a2-3)Gal(b1-4)GlcNAc(b1-2)Man(a1-3)[GlcNAc(b1-4)][Neu5Ac(a2-3)Gal(b1-4)GlcNAc(b1-2)Man(a1-6)]Man(b1-4)GlcNAc(b1-4)GlcNAc
Summary of the method: as §1

[43] = biological target: Neu5Ac(a2-3)Gal(b1-4)GlcNAc(b1-2)Man(a1-3)[Neu5Ac(a2-3)Gal(b1-4)GlcNAc(b1-2)Man(a1-6)]Man(b1-4)GlcNAc(b1-4)GlcNAc
Summary of the method: as §1

[44] = biological target: Neu5Ac(a2-3)Gal(b1-4)GlcNAc(b1-2)Man(a1-3)[Neu5Ac(a2-3)Gal(b1-4)GlcNAc(b1-2)Man(a1-6)]Man(b1-4)GlcNAc(b1-4)[Fuc(a1-6)]GlcNAc
Summary of the method: as §1

[45] = biological target: Neu5Ac(a2-3)Gal(b1-4)GlcNAc(b1-2)Man(a1-3)[Neu5Ac(a2-6)Gal(b1-4)GlcNAc(b1-2)Man(a1-6)]Man(b1-4)GlcNAc(b1-4)GlcNAc
Summary of the method: as §1

B1: LBL-152 (Laetiporus bicolor), B0D650 (protein)
chain: MSNEYNPPLGIAFRLCGLASDRVLFSRVSPSPEVFHHPKSEVYPDQWFVAIPGSGQNAGCYAIKSKNTGKVLFSRMSPDPRVGHIDGDGKYPDNWFKFEAGSGKYAGYFRLRAVASDTVLVSRTSTGTDTQVINYPATSAKYDDQYFTILFDHHHHHH
glycan array binding signal (z-score) [1]: -0.154 | glycan array binding signal (z-score) [2]: -0.159 | glycan array binding signal (z-score) [3]: -0.151 | glycan array binding signal (z-score) [4]: -0.16 | glycan array binding signal (z-score) [5]: -0.156 | glycan array binding signal (z-score) [6]: -0.159 | glycan array binding signal (z-score) [7]: -0.161 | glycan array binding signal (z-score) [8]: -0.156 | glycan array binding signal (z-score) [9]: -0.153 | glycan array binding signal (z-score) [10]: -0.15 | glycan array binding signal (z-score) [11]: -0.16 | glycan array binding signal (z-score) [12]: -0.159 | glycan array binding signal (z-score) [13]: -0.143 | glycan array binding signal (z-score) [14]: -0.149 | glycan array binding signal (z-score) [15]: -0.155 | glycan array binding signal (z-score) [16]: -0.159 | glycan array binding signal (z-score) [17]: -0.155 | glycan array binding signal (z-score) [18]: -0.15 | glycan array binding signal (z-score) [19]: -0.155 | glycan array binding signal (z-score) [20]: -0.145 | glycan array binding signal (z-score) [21]: -0.155 | glycan array binding signal (z-score) [22]: -0.154 | glycan array binding signal (z-score) [23]: -0.153 | glycan array binding signal (z-score) [24]: -0.152 | glycan array binding signal (z-score) [25]: -0.146 | glycan array binding signal (z-score) [26]: -0.16 | glycan array binding signal (z-score) [27]: -0.158 | glycan array binding signal (z-score) [28]: -0.153 | glycan array binding signal (z-score) [29]: -0.159 | glycan array binding signal (z-score) [30]: -0.148 | glycan array binding signal (z-score) [31]: -0.151 | glycan array binding signal (z-score) [32]: -0.148 | glycan array binding signal (z-score) [33]: -0.147 | glycan array binding signal (z-score) [34]: -0.148 | glycan array binding signal (z-score) [35]: -0.162 | glycan array binding signal (z-score) [36]: -0.158 | glycan array binding signal (z-score) [37]: -0.155 | glycan array binding signal (z-score) [38]: -0.156 | glycan array binding signal (z-score) [39]: -0.151 | glycan array binding signal (z-score) [40]: -0.158 | glycan array binding signal (z-score) [41]: -0.149 | glycan array binding signal (z-score) [42]: -0.151 | glycan array binding signal (z-score) [43]: -0.153 | glycan array binding signal (z-score) [44]: -0.16 | glycan array binding signal (z-score) [45]: -0.151
